In PubChem BioAssay AID2147 (National Center for Advancing Translational Sciences (NCATS), 2009):
Values joined by “and” are separate entries in the source; they are usually repeats but may differ in a detail not shown here. Identical values can stand only once. The campaign covered roughly 230,000 compounds. About 3,600 (1.6%) were called active. Inconclusive means that the source gave no clear call. Such entries were picked first, then a sample of the others. Calls follow the shape of the dose curve; as a rule, active = well fitted inhibition curve with a large enough effect (not every such curve was filed as active); inconclusive = small, poorly fitted or top-dose-only effect, or another doubt; inactive = no such curve, though single readings can be large or run the other way. Potencies beside an inconclusive call are fits to weak or partial responses and may not hold up.

These compounds were tested against Lysine-specific demethylase 4E (Homo sapiens) (UniProt B2RXH2) (assay: qHTS Assay for Inhibitors of Human Jumonji Domain Containing 2E (JMJD2E)). Conditions: JMJD2E catalytic domain, FDH-coupled NADH fluorescence (FDH is formaldehyde dehydrogenase); series mostly up to 57.1 µM; activity change, negative = inhibition: at the top concentration.
Also: nearly all actives have a fitted effect of over 50% in size.
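For activity change, negative = inhibition in this document: 0% = wells with enzyme and -100% = buffer wells without enzyme.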
Potency is read from the fitted curve at half-maximal effect; tags tell the direction and shape of the fitted curve.

UniProt B2RXH2, sequence (B2RXH2 whole entry, looked up, the tested form may be a part): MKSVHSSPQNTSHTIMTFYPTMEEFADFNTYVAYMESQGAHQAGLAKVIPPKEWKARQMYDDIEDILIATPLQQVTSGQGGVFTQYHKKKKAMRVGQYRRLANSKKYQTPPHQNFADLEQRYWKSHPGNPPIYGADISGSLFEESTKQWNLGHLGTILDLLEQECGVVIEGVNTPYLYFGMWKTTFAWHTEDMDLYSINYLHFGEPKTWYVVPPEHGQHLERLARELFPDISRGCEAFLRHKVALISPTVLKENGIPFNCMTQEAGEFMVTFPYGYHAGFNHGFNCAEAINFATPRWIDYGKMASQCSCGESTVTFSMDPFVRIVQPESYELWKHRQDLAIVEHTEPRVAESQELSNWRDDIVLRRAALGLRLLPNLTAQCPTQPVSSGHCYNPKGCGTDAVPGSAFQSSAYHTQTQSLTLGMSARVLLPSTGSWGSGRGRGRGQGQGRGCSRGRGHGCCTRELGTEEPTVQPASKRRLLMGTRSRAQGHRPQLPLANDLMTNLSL

SMILES | Potency | activity change, negative = inhibition
CSc1cc(-c2ccccc2)n(Cc2ccccc2Cl)c(=O)c1C#N | inconclusive: 28.2 µM [inhibitor, partial curve] | –
CC1(C)CC(=O)c2c(oc3cc(O)c(O)cc23)C1 | active: 15.8 µM and active: 12.6 µM | –
CCNC(=O)Nc1ccc(OC)cc1OC | – | inactive: 3.02%
CNC(=S)NC1(C)CCS(=O)(=O)C1 (stereo not given) | – | inactive: 4.75%
Cc1cc(NC(=O)CCCN2C(=O)c3cccc4cccc(c34)C2=O)no1 | inconclusive: 35.5 µM [inhibitor, partial curve] | –
O=C(N/N=C/c1ccc[nH]1)c1cc(-c2cccs2)nc2ccccc12 | inconclusive: 28.2 µM [inhibitor, partial curve] | –
OCc1ccccc1O[C@H]1OC(CO)C(O)C(O)C1O (stereo not given in full) | – | inactive: 2.32%
O=C(CNC(=O)c1ccco1)OCc1cccc(Cl)c1 | inconclusive: 39.8 µM [inhibitor, single point] | –
CCCCCCn1c(=O)[nH]c2nc3cc(N)ccc3nc2c1=O | – | inactive: -2.59%
Cc1cccc(C)c1-n1c(C)nn(CC#N)c1=O | – | inactive: -19%
O=C(COc1ccccc1[N+](=O)[O-])N(Cc1ccccc1)c1ccccn1 | inconclusive: 39.8 µM [inhibitor, single point] | –
CN=Cc1c(NC)nc2c(C)cccn2c1=O | inconclusive: 4.47 µM [inhibitor, full curve] | –
Cc1nn(-c2ccccc2)c(Cl)c1/C=N\NC(=O)c1cncc(Br)c1 | – | inactive: 6.02%
Cc1nc2ccc(Cl)cc2nc(C)/c1=N\O | inconclusive: 39.8 µM [inhibitor, single point] | –
COC(=O)c1c(-c2ccccc2Cl)noc1/C=C/N(C)C | inconclusive: 28.2 µM [inhibitor, single point] | –
O=C(c1cnn2c(C(F)(F)F)cc(-c3ccco3)nc12)N1CCc2ccccc2C1 | inconclusive: 39.8 µM [inhibitor, single point] | –
O=C(N/N=C/C(Br)=C/c1ccccc1)c1cccs1 | – | inactive: -9.35%
O=C(c1ccccc1)c1ccc(C(=O)N2CCOCC2)cc1 | – | inactive: -1.18%
CCCCNC(=O)C(c1ccc(OCC(=O)OC)c(C(=O)OC)c1)N(CCc1c[nH]c2ccccc12)C(=O)CCCCCN1C(=O)NC(c2ccc(-c3ccccc3)cc2)C(C(=O)OCc2ccccc2)=C1C (stereo not given) | inconclusive: 28.2 µM [inhibitor, single point] | –
Cn1ncc2c(NNC(=O)c3ccc(Cl)c(Cl)c3)ncnc21 | inconclusive: 31.6 µM [inhibitor, single point] | –
Cc1ccc2nc(N3CCC(C(=O)O)CC3)nc(-c3ccccc3)c2c1 | inconclusive: 31.6 µM [inhibitor, single point] | –
Cc1ccc(-c2nc3ccccc3[nH]2)cc1NC(=O)c1ccc2c(c1)OCO2 | – | inactive: -6.35%
Oc1ccc(Nc2nc(-c3cccs3)cs2)cc1 | – | inactive: 3.72%
C/C=C\C=C/C(=O)Nc1cccc(C2=NOC3(C2)C[C@@H](C(N)=O)N(C(=O)c2ccccc2)C3)c1 (stereo not given in full) | inconclusive: 25.1 µM [inhibitor, single point] | –

SMILES | Potency | activity change, negative = inhibition
COc1ccc(C(Cl)=C(c2ccc(OC)cc2)c2ccc(OC)cc2)cc1 | inconclusive: 20 µM [inhibitor, single point] and inconclusive: 28.2 µM [inhibitor, single point] and inconclusive: 39.8 µM [inhibitor, single point] | –
COc1ccccc1NC(=S)NNC(=O)c1nn(C)c(C)c1Cl | active: 14.1 µM | –
CCOC(=O)N1CCN(C(=O)C2CCN(Cc3ccc(OC)cc3OC)CC2)CC1 | inconclusive: 39.8 µM [inhibitor, single point] | –
Cc1nnc(NC(=O)C2CCN(S(=O)(=O)c3ccc(Cl)cc3)CC2)s1 | – | inactive: -4.04%
COc1ccc(CN2C(=O)c3ccccc3C(/C=N/OCc3ccc(Cl)cc3)C2=O)cc1 (stereo not given) | inconclusive: 35.5 µM [inhibitor, single point] | –
Cc1ccc(C)c2[nH]c(=O)c(CN(Cc3ccco3)C(=S)NCC3CCCO3)cc12 (stereo not given) | inconclusive: 39.8 µM [inhibitor, partial curve] | –
COc1ccccc1NS(=O)(=O)c1cc(NC(=O)C2CC2)ccc1N1CCOCC1 | inconclusive: 39.8 µM [inhibitor, single point] | –
Fc1cccc2sc(Nc3nc4ccccc4s3)nc12 | inconclusive: 3.16 µM [inhibitor, partial curve] | –
COCC(C)NC(=O)c1ccccc1OC(C)=O (stereo not given) | inconclusive: 35.5 µM [inhibitor, single point] | –
COc1cccc([C@@H]2Oc3ccc(Br)cc3[C@H](O)[C@H]2O)c1 | – | inactive: 4.14%
CC(C)(C)C(=O)OCCNc1nc(-c2ccccc2)nc2ccccc12 | – | inactive: -5.44%
Oc1cccc(NC(=S)N=Nc2c(O)[nH]c3ccccc23)c1 | inconclusive: 39.8 µM [inhibitor, single point] | –
COCC(=O)N(Cc1cc2ccccc2[nH]c1=O)c1ccccc1OC | inconclusive: 39.8 µM [inhibitor, single point] | –
COCCN1C(=O)N[C@@H](CCc2ccccc2)C(C(=O)OC)=C1C | – | inactive: 3.86%
Cc1ccc(C(=O)N/N=C2\SCC(=O)N2c2cc(C)ccc2C)cc1 | – | inactive: 1.69%
CCOC(=O)c1nn(-c2ccc(Cl)cc2)cc1O | inconclusive: 39.8 µM [inhibitor, single point] | –
CN(C(=O)CCCN1C(=O)c2cccc3cccc(c23)C1=O)c1ccccc1 | inconclusive: 35.5 µM [inhibitor, single point] | –
Cc1ccccc1C(=O)Nc1ccc(C(=O)N/N=C/c2ccc(O)c(Br)c2)cc1 | inconclusive: 35.5 µM [inhibitor, single point] | –
CC(=O)n1cc(Nc2ccccc2C(=O)O)c2ccccc21 | inconclusive: 31.6 µM [inhibitor, partial curve] | –
Cc1cc(N2CCOCC2)c2c(N)cc(C)c(C)c2n1 | – | inactive: -1.58%
CN(C1=NC(=O)C(CC(=O)O)S1)c1ccc(O)cc1 (stereo not given) | – | inactive: -5.26%
Cc1nc(-c2coc3c(O)c(O)ccc3c2=O)cs1 | active: 7.08 µM | –
O=[N+]([O-])c1ccc(C[n+]2cccc3ccc4cccnc4c32)cc1 | – | inactive: -4%
Cc1ccc2[nH]c(C(F)(F)F)cc(=O)c2c1 | inconclusive: 31.6 µM [inhibitor, partial curve] | –

SMILES | Potency | activity change, negative = inhibition
CSc1nc(N2CCN(c3ccccc3Cl)CC2)c2ccccc2n1 | inconclusive: 31.6 µM [inhibitor, single point] | –
CC(=O)Nc1nc2ccc(NC(=O)c3ccco3)cc2s1 | inconclusive: 7.08 µM [inhibitor, single point] | –
Nc1ccccc1C(=O)NNc1ncc(C(F)(F)F)cc1Cl | inconclusive: 31.6 µM [inhibitor, partial curve] | –
Cc1cc(NCCCCO)n2c(nc3ccccc32)c1C#N | inconclusive: 28.2 µM [inhibitor, partial curve] | –
O=C(Nc1c(O)c2ccccc2[nH]c1=O)c1ccco1 | inconclusive: 35.5 µM [inhibitor, single point] | –
CCOC(=O)CSc1ncnc2c1c(-c1ccccc1)cn2-c1ccc(OC)cc1 | inconclusive: 35.5 µM [inhibitor, single point] | –
Nc1nnc(-c2ccncc2)s1 | inconclusive: 31.6 µM [inhibitor, partial curve] | –
COC(=O)CN(C)C(=O)CC1C(=O)NCCN1CC(C)(C)C (stereo not given) | inconclusive: 31.6 µM [inhibitor, single point] | –
CCc1cc2c(=O)c(-c3ccc4c(c3)OCCO4)coc2c(CN2CCCCC2C)c1O (stereo not given) | inconclusive: 25.1 µM [inhibitor, partial curve] | –
CN1CCN(c2nnc(-c3cccs3)c3ccccc23)CC1 | – | inactive: -3.64%
COc1ccccc1C1C(C#N)=C(N)Oc2c1c(-c1ccccc1)nn2-c1ccccc1 (stereo not given) | inconclusive: 3.16 µM [inhibitor, single point] | –
Cc1ccc(C2=N/C(=C\c3c(C)nn(-c4ccccc4)c3N3CCCC3)C(=O)O2)cc1 | inconclusive: 35.5 µM [inhibitor, partial curve] | –
CC(CCc1ccccc1)NCC(O)c1ccc(O)c(C(N)=O)c1 (stereo not given) | inconclusive: 31.6 µM [inhibitor, partial curve] and inconclusive: 25.1 µM [inhibitor, partial curve] and inconclusive: 28.2 µM [inhibitor, partial curve] | –
COc1cccc(CNC(=O)c2cc3ccccn3n2)c1 | inconclusive: 28.2 µM [inhibitor, single point] | –
CC(C)C1Nc2ccc(S(N)(=O)=O)cc2C2C=CCC21 (stereo not given) | – | inactive: -26.2%
COc1ccc2c(c1)C(=O)[C@H](OC(=O)NCc1ccco1)[C@@H](c1ccc(OC)c(Br)c1)O2 | – | inactive: -23.8%
CN(Cc1ccccc1)C1=CC(=[N+]2CCCC2)CC(C)(C)C1 | inconclusive: 12.6 µM [inhibitor, partial curve, poor fit] | –
COc1ccc(CCNc2cc(-c3ccccc3)nc3ncnn23)cc1 | inconclusive: 39.8 µM [inhibitor, single point] | –
CCCCN=C1NN=C(c2cc3ccccc3o2)CS1 | active: 25.1 µM | –
O=C(CCN1C(=O)c2cccc3cccc(c23)C1=O)NCc1cccnc1 | inconclusive: 28.2 µM [inhibitor, partial curve] | –
CC(=O)Nc1ccc(S(=O)(=O)NCC2CCC(C(=O)N3CCN(c4ccccn4)CC3)CC2)cc1 (stereo not given) | inconclusive: 39.8 µM [inhibitor, single point] | –
COc1ccccc1/C=C/C(=O)NCC(=O)N/N=C/c1cccnc1 | inconclusive: 25.1 µM [inhibitor, partial curve] | –
